# Measured values published in ChEMBL document CHEMBL4888484, “Replenishing the malaria drug discovery pipeline: Screening and hit evaluation of the MMV Hit Generation Library 1 (HGL1) against asexual blood stage Plasmodium falciparum ,using a nano luciferase reporter read-out” (2022).
# Screen size: about 150,000 compounds; about 540 (0.36%) showed an effect of 50% or more. The list shows a part of the results.
# Tested on: Plasmodium falciparum
# Test: Primary screen in NF54 nanoGlo assay, in single point, at 2uM, 72h; a lower Z score goes with more inhibition
# Assay type: functional, Erythrocyte
# Conditions: timepoint 72 hour
SMILES,% Inhibition [%],Z score
Cc1ccc(-c2nnc3n2CCCCC3)cc1NC(=O)C1(c2cccc(F)c2)CCC1,-2,0.23
O=C(NCc1ccc(F)cn1)[C@@H]1CCCO1,-9,1.25
CONC(=O)C(=O)Nc1ccc(Br)cc1C,-10,1.25
Nc1nc(C2CC2)nc(N2CCN(C[C@H]3CCC4(CCC4)O3)CC2)n1,4,-0.4
CN(C)C(=O)c1n[nH]c2c1CN(C(=O)c1ccc(F)cc1F)CC2,5,-0.73
N#Cc1ccc(S(=O)(=O)N2CC(=O)NC3CCCCC32)o1 (centres undefined),0,-0.06
Cn1nnc(CS(=O)(=O)c2cccc(Br)c2)n1,-15,2.37
CC(C)COCCC(=O)N1CCC[C@H](NS(C)(=O)=O)C1,-2,0.27
COc1ccc([C@@H]2CCCN2c2ncccn2)cc1,7,-0.82
CC(c1ccco1)N(C)C(=O)[C@@H]1CC[C@H](C(=O)O)C1 (some centres undefined),-2,0.28
Cc1ccc(N2C(=O)N(Cc3cccc(C#N)c3)S(=O)(=O)c3cccnc32)cc1F,-8,0.77
COCCN1C[C@]2(CCCN(C(=O)Cc3cccc(F)c3)C2)CCC1=O,-13,2.04
Cc1nn(-c2ccccc2)c2sc(C(=O)NC(c3ccccc3)c3ccccc3)cc12,-11,1.9
OCCC1(CNc2ccccn2)CCOCC1,-6,0.9
CCN1CCCC(N2C(=O)OC(C)(C)C2(C)O)C1 (centres undefined),-13,1.41
C#CCCC1(CCC(=O)N2CCOC3CCN(C)CC32)N=N1 (centres undefined),-7,0.93
Cc1cc(-c2cccc(C(=O)N(Cc3cccnc3)CC(C)C)c2)ccn1,-8,1.38
COc1ccc(Cc2nn(CN(C)CC(=O)Nc3ccc(Cl)cc3)c(=S)o2)cc1,-16,2.1
COc1ccc(C2=NC3(CCN(Cc4ccccc4)CC3)N[C@H](c3cc(Cl)ccc3O)C2)cc1,40,-5.7
CCOC(c1noc(C(C)Cc2ccc(C)cc2)n1)C1CCOCC1 (centres undefined),-11,1.15
CON(C)C[C@H](O)Cn1cc(Nc2nc3ccccc3s2)cn1,-10,1.28

SMILES,% Inhibition [%],Z score
COC[C@H]1CCCN(C(=O)NCc2cccc(OC(C)(C)C)n2)CC1,-9,1.72
Cc1noc(C)c1CCC(=O)N1CCO[C@@H](C)C1,-2,0.24
CCN(CC)Cc1ccc2c(c1)CN(C(=O)c1ocnc1C)CCO2,-11,1.17
Cc1cc(C)c(CN2CCOC[C@@H]2C(=O)O)cc1CN1CCN(C)CC1,5,-1.05
CCn1nnc2cc(C(=O)N3CCOCC3)ccc21,-10,1.96
O=C(Cc1cccs1)N1CC[C@H](CCOc2ccccc2F)C1,-6,1.07
O=C(Cn1ccc2c(nnc3ccnn32)c1=O)NC1CCCCCC1,2,-0.22
Cc1cc(C)n(CCC(=O)N2CC[C@H](CCc3noc(C)n3)C2)n1,4,-0.6
Cc1cc(NC(=O)[C@@H]2CCCN2C(=O)CC(C)(C)C)ccn1,-5,0.69
CCC[C@H]1CN(C(=O)CCc2ccc(O)cc2)C[C@@H]1N(C)C,-15,1.47
O=C(c1nncc2ccccc12)N1CC[C@H](O)CC12CCC2,-4,0.75
CCC[C@H](C)c1cc(NC(=O)c2cnc(C)cn2)[nH]n1,-16,1.91
O=C(Cc1nnc(-c2cnccn2)o1)Nc1cc(F)cc(F)c1,4,-0.36
O=S(=O)(NC1(CO)CC1)c1c(Cl)cc(Br)cc1Cl,0,-0.01
Cc1cc(=O)n2ccn(Cc3nc(C4CC4)cs3)c2n1,-5,1.07
CCc1ccc(S(=O)(=O)N2CC[C@H](N3CCOC3=O)C2)s1,-5,0.7
CC(C)CC[C@]1(C)NC(=O)N(Cc2cc(=O)n(C)c(=O)n2C)C1=O,2,-0.19
COc1ccc(-c2ccc(C(=O)N3CC[C@H]4CC[C@@H](C3)N4C)cc2)c(C)c1,12,-1.59
C[C@H]1CN(C(=O)c2cncc(O)c2)CCN1CC(F)(F)F,-5,0.73
CC(C)c1ccccc1NC(=O)N1CCc2[nH][nH]c(=O)c2CC1,0,0.04
CCN(CC)c1ccc(C(=O)NCc2c(C)cc(C)[nH]c2=O)cn1,-11,1.45
